Results from PubChem BioAssay (NCATS).
The inconclusive results got no clear call from the source; some entries with a clear call stand among them for comparison. For part of these data: Potencies beside an inconclusive call are fits to weak or partial responses and may not hold up. Activity calls are given as the source filed them. Calls come from the whole dose curve; as a rule, active = well fitted curve in the direction sought with a large enough effect; inconclusive = small, poorly fitted or top-dose-only effect, or another doubt; inactive = no such curve, though single readings can be large; an effect the other way counts as inactive or inconclusive.

Legend:
[1] = P-glycoprotein substrates identified in KB-8-5-11 adenocarcinoma cell line, qHTS therapeutic library screen (AID 1346987); note: nearly all actives have a fitted effect of over 65% in size; note: potency is the fitted concentration of half-maximal effect
Procedure, shortened: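 KB-8-5-11, a colchicine-selected P-gp-overexpressing KB-3-1 subline, was grown without colchicine for the assay. Cells were seeded at 500 cells/well, dosed in concentration-response and incubated 72 h at 37 degree C, 5% CO2. Viability was read by CellTiter-Glo luminescence.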

[2] = Primary qHTS for inhibitors of nuclear receptor binding SET domain protein 2 (NSD2) in an isogenic RCH-ACV NSD2 p.E1099K mutant (9B) (AID 1645876); note: nearly all actives have a fitted effect of over 70% in size; note: potency is the fitted concentration of half-maximal effect
[3] = Primary qHTS for inhibitors of nuclear receptor binding SET domain protein 2 (NSD2) in an RCH-ACV wild type WT cells (2C) (AID 1645877); conditions: activity change, negative = cell killing: at 44.9 µM (top of the series); note: potency is the fitted concentration of half-maximal effect; nearly all actives have a fitted effect of over 70% in size
HEK293 = assay: Cytotoxic Profiling of Annotated Libraries Using Quantitative High-Throughput Screening (AID 1296008); conditions: Five cell lines viability, CellTiter-Glo ATP luminescence, 48-72 h; max response: stronger effect = lower value; note: nearly all actives have a fitted effect of over 60% in size; note: potency is the fitted concentration of half-maximal effect; for max response: % is set by controls: 0 for no effect and ±100 for the full control effect
Procedure, shortened: (§1)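 Cytotoxicity was measured as CellTiter-Glo ATP luminescence, read after 10 min at room temperature. Compound treatment of the cells lasted 48 or 72 hr at 37 degrees Celsius in a qHTS format.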

NIH3T3 = assay: as above; conditions: Five cell lines viability, CellTiter-Glo ATP luminescence, 48-72 h; max response: stronger effect = lower value
Procedure, shortened: as §1

SKOV3 = assay: Primary qHTS to identify gynecologic anti-cancer compounds using libraries of approved drugs and bioactive compounds (AID 1345084); conditions: Gynecologic cancer cell panel viability, ATPlite luminescence, 48 h; series mostly up to 57.5 µM; note: nearly all actives have a fitted effect of over 55% in size; note: potency is the fitted concentration of half-maximal effect
Procedure, shortened: (§2)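 48 h compound exposure at 37 C, 5% CO2; five-point qHTS. ATPlite luminescence readout of cell ATP.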

[4] = qHTS of pediatric cancer cell lines to identify multiple opportunities for drug repurposing: Primary screen for SK-N-MC cells (AID 1347093); conditions: SK-N-MC viability, CellTiter-Glo luminescence, 48 h; activity change, negative = cytotoxic: at 46 µM (top of the series);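 note: plate controls were DMSO neutral control for no effect and bortezomib for full effect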
Procedure, shortened: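 Metabolically active cells were quantified by ATP-dependent luminescence (CellTiter-Glo, 15 min at room temperature) following 48 h treatment. Cells had been plated at 500-1,000 per well and settled for 5 h beforehand.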

[5] = qHTS of pediatric cancer cell lines to identify multiple opportunities for drug repurposing: Primary screen for Saos-2 cells (AID 1347097); conditions: Saos-2 viability, CellTiter-Glo ATP luminescence, 48 h; activity change, negative = cytotoxic: at 46 µM (top of the series); note: potency is the fitted concentration of half-maximal effect; nearly all actives have a fitted effect of over 40% in size
Procedure, shortened: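 ATP-based luminescence (CellTiter-Glo) quantifies viability after a 48-hour exposure. Compounds are dosed across 8 or 11 final concentrations; DMSO and 2.3 µM bortezomib serve as controls.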

[6] = qHTS of pediatric cancer cell lines to identify multiple opportunities for drug repurposing: Primary screen for SK-N-SH cells (AID 1347098); conditions: SK-N-SH viability, CellTiter-Glo luminescence, 48 h; activity change, negative = cytotoxic: at 57 µM (top of the series);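 note: DMSO served as neutral control and bortezomib at 2.3 µM as positive control; % is set by controls: 0 for no effect and ±100 for the full control effect; nearly all actives have a fitted effect of over 65% in size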
Procedure, shortened: (§3)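 Cells (500-1,000/well) rested 5 h, then received compounds for 48 h; metabolically active cells were measured by CellTiter-Glo luminescence. Final concentrations spanned up to 46 µM (MIPE, 11-point) or 0.59 nM-46 µM (NPC, 8-point) in primary screens, 11-point in follow-ups.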

[7] = qHTS of pediatric cancer cell lines to identify multiple opportunities for drug repurposing: Primary screen for BT-12 cells (AID 1347101);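 note: plate controls were DMSO for no effect and bortezomib positive control for full effect; nearly all actives have a fitted effect of over 25% in size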
Procedure, shortened: as §3

[8] = Drug repurposing screens with cells derived from glioblastoma tumor samples (AID 1345199); conditions: GBM patient neurospheres viability, ATP luminescence, 48 h; Potency: tumour line A unless noted; activity, negative = cell killing: at 46 µM (top of the series), tumour line A unless noted; note: potency is the fitted concentration of half-maximal effect; nearly all actives have a fitted effect of over 40% in size
Procedure, shortened: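 Four patient lines of CD133+ GBM neurospheres were screened at several concentrations; hits were retested in those lines plus three slower-growing GBM lines, using 48-hour treatment and ATP-based viability.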

[9] = tested on: Zika virus NS2B-NS3 protease (unlinked complex); assay: Primary screen GU Rhodamine qHTS for Zika virus inhibitors: Unlinked NS2B-NS3 protease assay (AID 1347159); note: nearly all actives have a fitted effect of over 60% in size; note: potency is the fitted concentration of half-maximal effect
Procedure, shortened: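 Compounds, tested up to 114 microM, were incubated for 15 minutes with 25 nM unlinked NS2B-NS3 protease at pH 8.0. Cleavage of 1.5 microM Rhodamine110 substrate was then followed by fluorescence for 15 minutes.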

[10] = Primary redox qHTS assay for identification of artifact compounds. (AID 1845223); note: potency is the fitted concentration of half-maximal effect
Procedure, shortened: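 Amplex Red (25 uM) and HRP (250 mU/mL) in HBSS, with compounds for 15 min, then 250 uM DTT for 30 min, room temperature, dark. Fluorescence 525/598 nm read; normalized to DMSO and 10 uM DA3003; Hill fit.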

OV90 = assay: Primary qHTS to identify gynecologic anti-cancer compounds using libraries of approved drugs and bioactive compounds (AID 1345084); conditions: Gynecologic cancer cell panel viability, ATPlite luminescence, 48 h; series mostly up to 57.5 µM; note: nearly all actives have a fitted effect of over 55% in size; note: potency is the fitted concentration of half-maximal effect
Procedure, shortened: as §2
Tags give direction and shape of the fitted curve.

CCn1c(N)c(C(=O)NC)c(=O)c2ccc(C#CC(C)(O)COC)nc21 (centres undefined)
inconclusive: Potency [1] 29.1 µM [inhibitor, partial curve, poor fit] | Potency [2] 7.42 µM [inhibitor, full curve] | Potency [3] 8.33 µM [inhibitor, full curve] | Potency (HEK293) 8.2 µM [inhibitor, partial curve] | Potency (NIH3T3) 0.731 µM [inhibitor, full curve] | Potency (SKOV3) 39.8 µM [cytotoxic, single point]

CCCCCCCCCCOc1cc2c(=O)c(C(=O)OCC)c[nH]c2cc1OCC
inconclusive: Potency [5] 2.99 µM [cytotoxic, single point] | Potency [8] 8.91 µM [inhibitor, full curve, poor fit]
inactive: Potency [1] | activity change, negative = cytotoxic [4] -8.08% [at 4.84 µM] | activity change, negative = cytotoxic [6] 2.61% [at 6 µM] | activity change, negative = cytotoxic [7] 6.24% [at 6.03 µM] | outcome (HEK293) | max response (NIH3T3) -1.43%

C=C1CC[C@H]2C(=C)CC[C@H]3C(=C)C(=O)O[C@@H]3[C@@H]12
inconclusive: Potency [1] 18.4 µM [inhibitor, single point] | Potency [9] 44.7 µM [inhibitor, full curve] | Potency (HEK293) 25.9 µM [inhibitor, single point]
active: Potency [2] 16.3 µM
inactive: max response (NIH3T3) -3.18%

COc1ccc(N2CCN(C(=O)c3cc4c(s3)-c3ccccc3S(=O)(=O)C4)CC2)cc1
inactive: Potency [10] | max response (NIH3T3) -22% | Potency (OV90)
inconclusive: Potency [1] 18.4 µM [inhibitor, single point] | Potency (HEK293) 16.4 µM [inhibitor, single point]

COC(=O)CC[C@@H](C)C1CCC2C3CCC4C[C@H](OC(C)=O)CCC4(C)C3C[C@H](O)C21C (some centres undefined)
inconclusive: Potency (HEK293) 29.1 µM [inhibitor, single point]
inactive: outcome (NIH3T3) | Potency (OV90)

COc1ccc(Cl)cc1[C@@]1(F)C(=O)Nc2cc(C(F)(F)F)ccc21
inconclusive: Potency [1] 18.4 µM [inhibitor, partial curve, poor fit] | Potency [9] 50.1 µM [inhibitor, partial curve] | Potency (HEK293) 29.1 µM [inhibitor, single point] | Potency (NIH3T3) 18.4 µM [inhibitor, single point] | Potency (SKOV3) 39.8 µM [cytotoxic, single point]

CC(C)(CNC(=O)c1cccc(-c2noc(C(F)(F)F)n2)c1)c1coc(-c2ccccc2)n1
inactive: max response (NIH3T3) 4.1%
inconclusive: Potency [1] 20.6 µM [inhibitor, single point] | Potency [9] 39.8 µM [inhibitor, partial curve, poor fit] | Potency (HEK293) 29.1 µM [inhibitor, single point]

O=C(/C=C/c1ccccc1)O[C@@H]1[C@@H](CO)O[C@@](CO)(O[C@H]2O[C@H](CO)[C@@H](O)[C@H](O)[C@H]2O)[C@H]1O
inactive: Potency [1] | Potency [10] | max response (HEK293) 0.967% | max response (NIH3T3) 2.88% | Potency (OV90)

CCN(CC)CCCCCCNc1cc(OC)cc2c(C)ccnc12
inconclusive: Potency [1] 23.1 µM [inhibitor, single point] | Potency [2] 16.3 µM [inhibitor, single point] | Potency [10] 26.7 µM [activator, single point] | Potency (HEK293) 29.1 µM [inhibitor, single point] | Potency (NIH3T3) 32.6 µM [inhibitor, partial curve, poor fit] | Potency (OV90) 7.94 µM [cytotoxic, partial curve, poor fit]
active: Potency [3] 12.9 µM

CC(C)c1ccc(NC(=O)Cn2cnc3c2c(=O)n(C)c(=O)n3C)cc1
inactive: Potency [9] | Potency [2] | Potency [10] | max response (NIH3T3) -6.55%
inconclusive: Potency [3] 14.5 µM [inhibitor, partial curve, poor fit] | Potency (HEK293) 29.1 µM [inhibitor, single point]
